Common to all, as to experiment: pull-down; 3 ug of purified GST fusion protein on glutathione sepharose beads with 50-100 uL of transfected 293T cell lysate in PLC lysis buffer, 90 min at 4°C; anti-myc blot (Figure 5); only the target purified
Experiment [1] deals with T1, GST-hLNX1 PDZ3 (aa 498–597) (human) (UniProt Q8TBB1).
T1 sequence (chain, Alexa Fluor 647 label (array experiments)): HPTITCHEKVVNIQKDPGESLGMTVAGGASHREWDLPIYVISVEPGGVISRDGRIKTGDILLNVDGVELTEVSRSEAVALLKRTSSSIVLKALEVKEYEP

Sequences of proteins named here, by UniProt entry; tags and fusion partners are left off.
UniProt P22459: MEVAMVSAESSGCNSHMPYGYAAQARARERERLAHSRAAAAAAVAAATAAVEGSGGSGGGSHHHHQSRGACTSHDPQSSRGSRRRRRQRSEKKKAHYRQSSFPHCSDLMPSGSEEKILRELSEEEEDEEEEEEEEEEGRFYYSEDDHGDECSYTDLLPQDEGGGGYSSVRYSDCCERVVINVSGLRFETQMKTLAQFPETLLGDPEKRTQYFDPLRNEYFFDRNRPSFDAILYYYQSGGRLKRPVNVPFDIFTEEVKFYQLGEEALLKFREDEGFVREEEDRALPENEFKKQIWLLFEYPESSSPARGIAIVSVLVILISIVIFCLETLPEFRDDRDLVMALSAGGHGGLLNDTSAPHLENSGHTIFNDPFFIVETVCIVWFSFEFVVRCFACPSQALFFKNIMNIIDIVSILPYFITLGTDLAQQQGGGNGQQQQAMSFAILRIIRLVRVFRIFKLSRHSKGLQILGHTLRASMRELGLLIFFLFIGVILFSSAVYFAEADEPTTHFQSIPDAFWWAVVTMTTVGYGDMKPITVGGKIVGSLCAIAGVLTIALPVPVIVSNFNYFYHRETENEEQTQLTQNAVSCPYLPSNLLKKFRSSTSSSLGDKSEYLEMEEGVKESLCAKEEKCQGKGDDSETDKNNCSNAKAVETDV
UniProt Q9NQU5: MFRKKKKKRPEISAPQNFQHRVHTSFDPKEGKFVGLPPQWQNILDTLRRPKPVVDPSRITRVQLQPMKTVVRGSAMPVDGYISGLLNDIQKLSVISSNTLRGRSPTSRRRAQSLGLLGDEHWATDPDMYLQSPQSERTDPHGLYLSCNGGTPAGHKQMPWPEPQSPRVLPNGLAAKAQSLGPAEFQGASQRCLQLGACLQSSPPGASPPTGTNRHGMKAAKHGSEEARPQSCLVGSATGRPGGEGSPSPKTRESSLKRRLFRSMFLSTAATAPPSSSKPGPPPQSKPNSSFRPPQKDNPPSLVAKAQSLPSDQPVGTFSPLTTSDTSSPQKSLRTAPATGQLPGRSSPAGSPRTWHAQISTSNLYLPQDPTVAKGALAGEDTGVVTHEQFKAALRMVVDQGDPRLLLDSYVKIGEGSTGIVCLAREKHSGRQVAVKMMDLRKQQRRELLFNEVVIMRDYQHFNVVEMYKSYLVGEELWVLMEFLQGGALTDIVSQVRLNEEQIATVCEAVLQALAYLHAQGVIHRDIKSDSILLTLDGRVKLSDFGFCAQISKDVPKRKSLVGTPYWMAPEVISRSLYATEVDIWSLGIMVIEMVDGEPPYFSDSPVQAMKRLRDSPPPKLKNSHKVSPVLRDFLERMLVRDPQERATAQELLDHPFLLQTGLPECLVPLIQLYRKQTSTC
UniProt P29597: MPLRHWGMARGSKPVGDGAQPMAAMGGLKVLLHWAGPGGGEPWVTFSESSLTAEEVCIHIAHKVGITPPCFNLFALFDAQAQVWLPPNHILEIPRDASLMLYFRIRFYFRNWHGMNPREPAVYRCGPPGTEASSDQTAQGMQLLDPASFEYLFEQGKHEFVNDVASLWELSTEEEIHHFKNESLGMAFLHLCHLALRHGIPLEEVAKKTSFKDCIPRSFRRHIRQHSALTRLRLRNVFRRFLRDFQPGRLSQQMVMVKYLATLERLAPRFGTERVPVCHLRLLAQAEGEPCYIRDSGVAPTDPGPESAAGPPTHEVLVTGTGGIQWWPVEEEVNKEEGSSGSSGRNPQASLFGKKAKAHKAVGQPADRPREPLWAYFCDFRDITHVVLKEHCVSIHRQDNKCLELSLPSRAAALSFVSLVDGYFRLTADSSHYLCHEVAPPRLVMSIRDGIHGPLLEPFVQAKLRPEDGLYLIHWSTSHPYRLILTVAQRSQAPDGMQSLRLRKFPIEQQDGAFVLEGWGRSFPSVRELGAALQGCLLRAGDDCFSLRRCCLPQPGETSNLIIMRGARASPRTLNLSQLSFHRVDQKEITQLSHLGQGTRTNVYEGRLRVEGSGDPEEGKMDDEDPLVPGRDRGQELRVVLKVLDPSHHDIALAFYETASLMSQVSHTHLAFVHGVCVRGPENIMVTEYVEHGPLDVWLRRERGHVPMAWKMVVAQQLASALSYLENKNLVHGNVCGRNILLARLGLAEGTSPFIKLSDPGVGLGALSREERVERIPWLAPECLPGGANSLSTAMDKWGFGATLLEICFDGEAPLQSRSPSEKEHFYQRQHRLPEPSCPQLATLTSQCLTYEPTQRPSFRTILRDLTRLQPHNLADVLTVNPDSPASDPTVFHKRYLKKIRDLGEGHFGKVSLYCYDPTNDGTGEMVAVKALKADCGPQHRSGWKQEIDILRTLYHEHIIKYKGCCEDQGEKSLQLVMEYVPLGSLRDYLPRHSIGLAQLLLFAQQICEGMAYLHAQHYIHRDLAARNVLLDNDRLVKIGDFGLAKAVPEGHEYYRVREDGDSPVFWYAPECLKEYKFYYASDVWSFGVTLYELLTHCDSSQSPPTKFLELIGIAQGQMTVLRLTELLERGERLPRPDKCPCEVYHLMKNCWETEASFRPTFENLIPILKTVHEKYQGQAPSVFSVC

For experiment [2], the target named is T2, GST-hLNX1 PDZ1 (aa 222–380) (human) (UniProt Q8TBB1).
T2 sequence: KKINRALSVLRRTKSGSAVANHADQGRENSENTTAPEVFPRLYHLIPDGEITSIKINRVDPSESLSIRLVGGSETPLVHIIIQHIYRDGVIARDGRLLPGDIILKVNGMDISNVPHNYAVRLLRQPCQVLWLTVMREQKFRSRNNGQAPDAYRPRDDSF

The target in experiment [3] is T3, GST-hLNX1 PDZ2 (aa 373–466) (human) (UniProt Q8TBB1).
T3 sequence (chain, Alexa Fluor 647 label (array experiments)): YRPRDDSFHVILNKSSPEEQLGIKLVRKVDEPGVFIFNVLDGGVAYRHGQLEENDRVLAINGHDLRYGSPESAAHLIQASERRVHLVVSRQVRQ

Experiment [4] concerns the target T4, GST-hLNX1 PDZ4Δ3C (aa 630–725) (human) (UniProt Q8TBB1).
T4 sequence (chain, Alexa Fluor 647 label (array experiments)): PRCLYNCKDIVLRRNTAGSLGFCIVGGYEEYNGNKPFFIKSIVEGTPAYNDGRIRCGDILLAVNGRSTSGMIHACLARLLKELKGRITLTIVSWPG

Results are given in words; binding and its absence hold for the method and conditions named. Binding seen in cells or lysates may run through a third protein. Some binding calls cover weakened binding; strength is not graded here. Where a sequence is shown, tags or fusion partners need not be part of it.

As to “Myc-tagged KCNA4 (from UniProt P22459 1-653)”, the binding result in experiment [1] is “no binding”; in experiment [2] it was “binds”.

For “Myc-tagged PAK6 (from UniProt Q9NQU5 1-681)”, the figures for the binding result in experiment [3], in experiment [4] and in experiment [1] were “binds”, “binds” and “no binding”, respectively.

“Myc-tagged PKC-alpha1 (from UniProt P17252 1-672)”: the binding result is on record as “binds” in experiment [3], “binds” in experiment [4] and “no binding” in experiment [1].

Turning to “Myc-tagged TYK2 (from UniProt P29597 1-1187)”, the binding result is “binds” in experiment [3] and “no binding” in experiment [1].

B1: Myc-tagged PLEKHG5 (protein, UniProt O94827 1-1006)
chain: MHYDGHVRFDLPPQGSVLARNVSTRSCPPRTSPAVDLEEEEEESSVDGKGDRKSTGLKLSKKKARRRHTDDPSKECFTLKFDLNVDIETEIVPAMKKKSLGEVLLPVFERKGIALGKVDIYLDQSNTPLSLTFEAYRFGGHYLRVKAPAKPGDEGKVEQGMKDSKSLSLPILRPAGTGPPALERVDAQSRRESLDILAPGRRRKNMSEFLGEASIPGQEPPTPSSCSLPSGSSGSTNTGDSWKNRAASRFSGFFSSGPSTSAFGREVDKMEQLEGKLHTYSLFGLPRLPRGLRFDHDSWEEEYDEDEDEDNACLRLEDSWRELIDGHEKLTRRQCHQQEAVWELLHTEASYIRKLRVIINLFLCCLLNLQESGLLCEVEAERLFSNIPEIAQLHRRLWASVMAPVLEKARRTRALLQPGDFLKGFKMFGSLFKPYIRYCMEEEGCMEYMRGLLRDNDLFRAYITWAEKHPQCQRLKLSDMLAKPHQRLTKYPLLLKSVLRKTEEPRAKEAVVAMIGSVERFIHHVNACMRQRQERQRLAAVVSRIDAYEVVESSSDEVDKLLKEFLHLDLTAPIPGASPEETRQLLLEGSLRMKEGKDSKMDVYCFLFTDLLLVTKAVKKAERTRVIRPPLLVDKIVCRELRDPGSFLLIYLNEFHSAVGAYTFQASGQALCRGWVDTIYNAQNQLQQLRAQEPPGSQQPLQSLEEEEDEQEEEEEEEEEEEEGEDSGTSAASSPTIMRKSSGSPDSQHCASDGSTETLAMVVVEPGDTLSSPEFDSGPFSSQSDETSLSTTASSATPTSELLPLGPVDGRSCSMDSAYGTLSPTSLQDFVAPGPMAELVPRAPESPRVPSPPPSPRLRRRTPVQLLSCPPHLLKSKSEASLLQLLAGAGTHGTPSAPSRSLSELCLAVPAPGIRTQGSPQEAGPSWDCRGAPSPGSGPGLVGCLAGEPAGSHRKRCGDLPSGASPRVQPEPPPGVSAQHRKLTLAQLYRIRTTLLLNSTLTASEV
With B1, the binding entry in experiment [1] and in experiment [2] was “binds” in each case.

The values above are taken from paper PMC3210812.
